According to publication PMC6919601, “Identification of Plasmodium dipeptidyl aminopeptidase allosteric inhibitors by high throughput screening” (PLoS ONE, 2019):
In all, about 110,000 compounds went through this assay and about 230 (0.21%) showed an effect of 50% or more. Some of the results follow.
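Note: 30 min substrate incubation versus DMSO and 10 µM JCP410 controls.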

The compounds below were run against DPAP1 (Plasmodium falciparum, UniProt Q8IIJ9) (assay: primary screen, percent inhibition; read by cleavage of a fluorogenic dipeptide substrate; higher = more effect of the substance).
Chain of DPAP1 (Q8IIJ9 whole entry, looked up): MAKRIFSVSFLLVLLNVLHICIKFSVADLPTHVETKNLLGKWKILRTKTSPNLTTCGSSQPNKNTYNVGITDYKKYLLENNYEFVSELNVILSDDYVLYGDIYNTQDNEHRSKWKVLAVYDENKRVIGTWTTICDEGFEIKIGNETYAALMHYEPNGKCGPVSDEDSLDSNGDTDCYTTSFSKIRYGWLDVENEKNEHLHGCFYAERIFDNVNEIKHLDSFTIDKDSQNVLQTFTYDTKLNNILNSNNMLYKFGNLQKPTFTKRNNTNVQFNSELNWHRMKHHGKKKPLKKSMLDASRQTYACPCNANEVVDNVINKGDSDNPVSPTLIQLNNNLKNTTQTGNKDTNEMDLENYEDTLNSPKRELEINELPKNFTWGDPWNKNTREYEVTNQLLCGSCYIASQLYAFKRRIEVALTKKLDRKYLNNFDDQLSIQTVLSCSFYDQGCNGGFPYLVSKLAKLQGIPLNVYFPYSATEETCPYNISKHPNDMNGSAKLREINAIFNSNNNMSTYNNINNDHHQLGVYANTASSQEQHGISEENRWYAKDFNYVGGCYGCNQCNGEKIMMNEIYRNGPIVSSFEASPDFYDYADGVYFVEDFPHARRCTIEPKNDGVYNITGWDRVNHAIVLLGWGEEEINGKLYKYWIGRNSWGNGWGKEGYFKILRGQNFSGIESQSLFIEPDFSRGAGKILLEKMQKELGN
Set-up: species or system P. falciparum D10 trophozoite lysates; single well
In the case of `COc1ccc(N(C)S(=O)(=O)c2ccc(N3C(=O)c4ccccc4C3=O)cc2)cc1`, the “% Inhibition @ 10 uM” value was 3.8%.
In the case of `Cc1ccc(NS(=O)(=O)c2ccc(Cl)cc2)cc1C`, the “% Inhibition @ 10 uM” value was -3.04%.
`COC(=O)c1ccc(-c2ccco2)n1CC(=O)NC(C)C` was tested, and the “% Inhibition @ 10 uM” value was -5.69%.
For `Cc1cccc(NC(=O)Cn2nc(Cc3cccnc3)c3ccccc3c2=O)n1`, the “% Inhibition @ 10 uM” value was -4.69%.
In the case of `CCN(CC)CCCNc1ccc(C2CCCC2)cc1`, the “% Inhibition @ 10 uM” value was -5.79%.
In the case of `COc1cccc(-c2nn(C)c3sc(C(=O)NCCC4=CCCCC4)cc23)c1`, the “% Inhibition @ 10 uM” value was 10.5%.
With `CCO/C(O)=C1/C(C)=Nc2ncnn2C1c1ccc2c(c1)OCO2` (centres unmarked) the “% Inhibition @ 10 uM” value was 3.32%.
With `CC1=C(C(=O)Nc2ccccc2)C(c2cn(C)nc2C)NC(=O)N1` (centres unmarked) the “% Inhibition @ 10 uM” value was -1.88%.
With `COc1ccc(OC)c(NC(=O)CN(c2cccc(Cl)c2C)S(C)(=O)=O)c1` the “% Inhibition @ 10 uM” value was -2.75%.
With `N#Cc1c(NC(=O)CSCCO)sc2c1CCCC2` the “% Inhibition @ 10 uM” value was -5.58%.
With `CCN(CC)CC#CC(C)(O)C(C)(C)C` (centres unmarked) the “% Inhibition @ 10 uM” value was 0.912%.
In the case of `C=CCNc1oc(/C=C/c2ccc(F)cc2)nc1C#N`, the “% Inhibition @ 10 uM” value was -4.39%.
With `O=C(Nc1nnc(S(=O)(=O)N2CCCCC2)s1)C12C[C@H]3C[C@@H](C1)C[C@@H](C2)C3` the “% Inhibition @ 10 uM” value was 1.68%.
For `Cc1ccc(C)n1-c1cccc(NC(=O)c2cccc(-n3c(C)ccc3C)c2)c1`, the “% Inhibition @ 10 uM” value was 5.32%.
With `O=C(/C=C/c1cccs1)Nc1c(C(=O)N2CCC(N3CCCCC3)CC2)oc2ccccc12` the “% Inhibition @ 10 uM” value was 4.11%.
With `Cc1n[nH]c(SCCCSc2n[nH]c(C)n2)n1` the “% Inhibition @ 10 uM” value was 3.87%.
With `COc1cc(-c2nnc3sc(COc4ccccc4C)nn23)cc(OC)c1OC` the “% Inhibition @ 10 uM” value was 4.28%.
With `CC(=O)NC(NC(C)=O)c1ccc(Br)cc1` the “% Inhibition @ 10 uM” value was 10.1%.
`Cc1ccc2c(CNCCC3=CCCCC3)c(C(=O)O)n(Cc3ccc(F)cc3)c2c1` was tested, and the “% Inhibition @ 10 uM” value was 2.56%.
`CC(C)CCOC(=O)c1[nH]nc([N+](=O)[O-])c1[N+](=O)[O-]` was tested, and the “% Inhibition @ 10 uM” value was 1.08%.
With `CCN(CC)CCCCCCOc1ccccc1` the “% Inhibition @ 10 uM” value was -0.546%.
In the case of `CCN(CC)CCNC(=O)C1(c2ccccc2)CCOCC1`, the “% Inhibition @ 10 uM” value was 2.03%.
With `COc1ccc(-c2nnc3sc(NC(=O)c4cc(OC)c(OC)c(OC)c4)nn23)cc1OC` the “% Inhibition @ 10 uM” value was 0.813%.
`CCN(CC)C(=O)CN(c1ccc(C)cc1)S(=O)(=O)c1ccc(C)cc1` was tested, and the “% Inhibition @ 10 uM” value was 8.29%.
For `CN(C1CCCCC1)S(=O)(=O)c1ccc(S(=O)(=O)N(Cc2ccc(F)cc2)C2CC2)cc1`, the “% Inhibition @ 10 uM” value was 0.401%.
For `O=C1CCC(c2ccccc2)(C2CCN(Cc3ccccc3)CC2)C(=O)N1` (centres unmarked), the “% Inhibition @ 10 uM” value was -7.15%.
In the case of `Cc1ccc2[nH]c(SCC(=O)N3CCOCC3)nc2c1C`, the “% Inhibition @ 10 uM” value was 6.05%.
With `CCc1ccc(CNC(=O)CCCn2nc(C)c3c(C)n(-c4ccc(C)cc4)nc3c2=O)cc1` the “% Inhibition @ 10 uM” value was -9.59%.
With `O=C(Nc1ccc(Cl)c([N+](=O)[O-])c1)c1ccc(-c2ccccc2)cc1` the “% Inhibition @ 10 uM” value was 4.42%.
In the case of `CC(CNC(=O)CCCc1nnc2n(C)c(=O)c3sccc3n12)c1ccccc1` (centres unmarked), the “% Inhibition @ 10 uM” value was 3.98%.
`CCc1ccc(CNC(=O)c2cc3cc4cc(OC)ccc4nc3o2)cc1` was tested, and the “% Inhibition @ 10 uM” value was 1.9%.
In the case of `N#C/C(=C/c1ccc(-c2ccccc2)cc1)c1nc(-c2ccc(Cl)cc2)cs1`, the “% Inhibition @ 10 uM” value was -8.04%.
In the case of `CCOc1ccc(N2C(=O)NC(=O)/C(=C\c3ccc(C)o3)C2=O)cc1`, the “% Inhibition @ 10 uM” value was 4.65%.
In the case of `O=C(O)CCCN1C(=O)C2C3CC(C2C1=O)C1C(c2ccc(F)cc2)c2sc(O)nc2SC31` (centres unmarked), the “% Inhibition @ 10 uM” value was 3.24%.
For `CC(NC(=O)/C(=C\c1ccco1)NC(=O)c1ccc(Br)cc1)C(=O)O` (centres unmarked), the “% Inhibition @ 10 uM” value was 1.31%.
`Cc1ccc(-c2nc(CS(=O)CC(=O)NCCN3CCCCC3C)c(C)o2)cc1` (centres unmarked) was tested, and the “% Inhibition @ 10 uM” value was 2.37%.
For `O=C([C@H](Cc1ccccc1)N1Cc2ccccc2C1=O)N1CCN(c2ccccn2)CC1`, the “% Inhibition @ 10 uM” value was -2.25%.
With `Cc1cccn2c(=O)c3cc(C(=O)NCc4ccccn4)n(C)c3nc12` the “% Inhibition @ 10 uM” value was -0.659%.
`Cc1c(C(=O)Nc2sc3c(c2C(=O)NCc2ccco2)CCCC3)oc2ccccc12` was tested, and the “% Inhibition @ 10 uM” value was -3.63%.
`CCCCNc1cc(C)oc(=O)c1C(=O)CCC` was tested, and the “% Inhibition @ 10 uM” value was -10.1%.
In the case of `Cc1nc(/N=C(\N)NC(=O)CCN2C(=O)c3ccccc3C2=O)nc2ccccc12`, the “% Inhibition @ 10 uM” value was -0.828%.
With `O=C(NCc1ccc2c(c1)OCO2)C1CCCCC1` the “% Inhibition @ 10 uM” value was 1.13%.
For `Cc1ccc(-c2cc3c4ccc(C)n4ccn3c2)cc1`, the “% Inhibition @ 10 uM” value was 0.00178%.
In the case of `Cc1cccc(OCC(=O)Nc2cccc(C)c2C)c1`, the “% Inhibition @ 10 uM” value was -9%.
In the case of `CC(=O)c1cc(-c2ccc(C(=O)N[C@@H](CC(C)C)C(=O)NCC#N)cc2)c(Cl)s1`, the “% Inhibition @ 10 uM” value was -6.98%.
In the case of `CCCCN(C)C(=O)C1c2cc(OC)c(OC)cc2C(=O)N2CCc3ccccc3C12` (centres unmarked), the “% Inhibition @ 10 uM” value was 0.208%.
`c1cnc2c(SCc3cn4ccccc4n3)cccc2c1` was tested, and the “% Inhibition @ 10 uM” value was 6.08%.
With `CCn1c2ccccc2c2cc(NC(=O)c3cccc(C)c3)ccc21` the “% Inhibition @ 10 uM” value was 1.57%.
With `COc1ccc(CN2C(=O)c3cccnc3C2=O)cc1S(=O)(=O)N(C)Cc1ccccc1` the “% Inhibition @ 10 uM” value was 8.5%.
With `CCOC(=O)N1CCC(NCCC2=CCCCC2)CC1` the “% Inhibition @ 10 uM” value was -1.81%.
With `CCOC(=O)c1[nH]c(C)c(C(=O)CCC2CCCC2)c1C` the “% Inhibition @ 10 uM” value was 5.32%.
For `CCCOc1ccc(C(=O)CCNC(Cc2c[nH]c3ccccc23)C(=O)O)cc1` (centres unmarked), the “% Inhibition @ 10 uM” value was 81.9%.
With `O=C1OCCN/C1=C\C(=O)c1ccc(Cl)cc1` the “% Inhibition @ 10 uM” value was 0.878%.
For `CS(=O)(=O)c1ncc(Cl)c(C(=O)Nc2sc3c(c2C(=O)NCC2CCCO2)CCCC3)n1` (centres unmarked), the “% Inhibition @ 10 uM” value was -8.43%.
`COc1ccccc1-c1c(C)nn2c(N3CCN(Cc4ccccc4)CC3)cc(C)nc12` was tested, and the “% Inhibition @ 10 uM” value was -3.21%.
With `COc1cccc2c1cc1c(=O)n(CC(=O)NCCCc3ccccc3)nc(C)n12` the “% Inhibition @ 10 uM” value was -3.47%.
In the case of `Cc1ccnc(NS(=O)(=O)Cc2ccccc2)c1`, the “% Inhibition @ 10 uM” value was 3.42%.
`Cc1c(C)n(C)c2ccc(C(=O)N3CCCCC3)cc12` was tested, and the “% Inhibition @ 10 uM” value was -3.53%.
In the case of `CCOC(=O)c1cc(C)n(-c2ccc(C(=O)N3CCCCCC3)cc2)c1C`, the “% Inhibition @ 10 uM” value was 0.434%.
With `COc1ccc(CCNC(=O)c2nc(Cn3nc(C)c(Br)c3C)no2)cc1OC` the “% Inhibition @ 10 uM” value was -0.0678%.
For `Cc1cc(C(N)=O)c2cc(Br)ccc2n1`, the “% Inhibition @ 10 uM” value was 0.215%.
With `O=C(CN(Cc1ccccc1)S(=O)(=O)c1ccccc1)N1CCOCC1` the “% Inhibition @ 10 uM” value was 1.84%.
